Out of some 48,000 compounds screened, about 450 (0.94%) were called active. Not shown: some 19% with an inconclusive outcome. Calls follow the shape of the dose curve; as a rule, active = well fitted inhibition curve with a large enough effect; inconclusive = small, poorly fitted or top-dose-only effect; inactive = no such curve, though single readings can be large or run the other way. The list shows a part of the results.
Assay: Primary qHTS for Identification of Small Molecule Inhibitors of Huntingtin Promoter Activity; also: nearly all actives have a fitted effect of over 50% in size
Conditions: HEK293 HTT promoter firefly luciferase reporter (activity 0% = vehicle and -100% = no light), 24 h; series mostly up to 57.5 µM; activity change, negative = inhibition: at the top concentration
Summary of the method: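 HEK293 cells carrying firefly luciferase reporters were seeded at 2,500 per well in Opti-MEM and cultured for 24 h. They were then treated with compounds at up to 57.5 uM final for 24 h at 37 degrees C before Dual-Glo luminescence readout.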

Activity change, negative = inhibition, inactive:
COc1ccc(S(=O)(=O)NCC(c2ccc(N(C)C)cc2)N2CCCC2)cc1F (centres undefined) -8.03%, Cc1ccc(Cl)cc1N1CCN(S(=O)(=O)c2ccc3oc(=O)c4ncn(C)c4c3c2)CC1 -7.61%, Cc1ccccc1Cn1cc(NC(=O)c2cc(-c3ccc(Cl)cc3)on2)cn1 -2.17%, Cc1cccc(OCC(=O)NCC2(N3CCN(C)CC3)CCCCC2)c1 -6.56%, Cc1[nH]c2ccc(C(=O)NCCc3ccccc3Cl)cc2c1C 33.7%, Cc1cccc(NC(=O)CN2C(=O)COc3ccc(S(=O)(=O)Nc4ccccc4)cc32)c1C -18.2%, CCCS(=O)(=O)N1CC(=O)N(c2ccccc2C)C(C)(C(=O)NC2CCCCC2)C1 (centres undefined) 0.0135%, CC(C)OCCCn1c(=O)c2ccccc2n2c(-c3ccc(F)c(F)c3)nnc12 -4.2%, CCC1CN(C(=O)N2CCC(C(=O)NCc3ccc(C)o3)CC2)c2ccccc2O1 (centres undefined) -9.08%, COc1ccc(Nc2cc(C(=O)NCc3ccccc3)c3ccccc3n2)cc1 -4.17%, O=C(Nc1cccc(-c2nc3cc(Cl)ccc3o2)c1)c1ccc(F)cc1 2.94%, O=C(Cn1c(=O)n(Cc2ccc(F)cc2)c(=O)c2sc3ccccc3c21)NCc1ccccc1 -14%, Cc1ccc(NC(=O)C2CCC(CNS(=O)(=O)c3cccc4nsnc34)CC2)c(C)c1 (centres undefined) -5.2%, COc1ccc(-c2nc3sc(CCNC(=O)C(=O)Nc4ccc(C)cc4C)c(C)n3n2)cc1 -24.3%, Cc1nc2ccc(S(=O)(=O)N(CC(=O)Nc3cccc(C)c3C)Cc3ccccc3)cc2s1 -23.2%, Cc1ccc(C)c(Cn2c(C(C)NC(=O)c3ccccc3)nc3ccccc32)c1 (centres undefined) -3.45%, COc1cccc(OCc2nc3ccccc3n2C)c1 100%, O=C(CCn1cnc2onc(-c3ccc(F)cc3)c2c1=O)N1CCN(c2ccccc2)CC1 -11.2%, O=C(CSC1=Nc2ccccc2C2=NC(Cc3ccccc3)C(=O)N12)Nc1ccccc1 (centres undefined) -21.1%, O=C(NCc1noc2ccccc12)N1CCN(c2ccccc2F)CC1 -4.66%, CCOc1cccc2cc(-c3nc(-c4ccc(Cl)cc4)c(C)s3)c(=O)oc12 -6.44%, COc1ccc(Cn2c(CCC(=O)Nc3cccc(Cl)c3)nc3cccnc32)cc1 -27.9%, Cc1nc(N2CCOCC2)c2c(C(=O)N3CCN(c4ccc(Cl)cc4)CC3)c(C)oc2n1 -11%, CCOc1ccc(C(c2c(C)[nH]n(-c3ccccc3)c2=O)c2c(C)[nH]n(-c3ccccc3)c2=O)cc1OC -29.3%, COc1ccc(-c2nsc(NC(=O)c3cccc(OC)c3)n2)cc1 -22.6%, CCc1ccc(-c2cn3c(n2)sc2cc(C(=O)NCCCc4ccccc4)ccc23)cc1 -1.44%, CCOc1ccccc1CNC(=O)c1ccc2nc(CCc3ccccc3)oc2c1 -26.4%, CCc1nn2c(=O)cc(COC(=O)c3cccs3)nc2s1 53.8%, COC(=O)c1ccc(CN(Cc2ccc(OC)c(OC)c2)S(=O)(=O)c2ccc(F)c(C(=O)Nc3cc(C)ccc3C)c2)cc1 -11.5%, C[C@]12CCC(=O)C=C1CC[C@@H]1[C@@H]2C(=O)C[C@@]2(C)[C@H]1CC[C@]2(O)C(=O)CO 8.9%, CCOc1ccccc1NC(=O)CN1Cc2ccccc2C1=O -15.9%, CC(Oc1ccccc1)C(=O)Nc1ccc(C(=O)OCc2cc(=O)n3ccsc3n2)cc1 (centres undefined) -24%, Cc1cccc(C(=O)NCC(=O)OCc2cc(=O)n3nc(C)sc3n2)c1 8.36%, N#Cc1nc(/C=C/c2ccc(F)cc2)oc1N1CCCCC1 -5.8%, Cc1cccc(Nc2cc(C)nc3nc(Cc4ccc(Cl)cc4)nn23)c1 -21.2%, CCCOc1ccccc1C(=O)Nc1ccc(-c2nc3ccc(C)cc3s2)cc1 -15.1%, Cc1cc(-c2ccccc2)nc2cc(C(=O)Nc3cc(C(F)(F)F)ccc3Cl)nn12 9%, COc1ccc(CNC(=O)c2ccc3c(Cl)c4c(nc3c2)CCCC4)c(OC)c1 -12.6%, Cc1nc(SCC(=O)Nc2ccc(Cl)cc2C(F)(F)F)[nH]c(=O)c1Cc1ccccc1 -9.18%, Cc1ccc(Cn2cc3c(n2)-c2c(oc(C(=O)Nc4ccc(F)cc4F)c2C)CC3)cc1 -0.951%, CCN(Cc1ccccc1)Cc1c(O)ccc2c(=O)c(-c3ccccc3Cl)coc12 -24.4%, CCn1cc(C(=O)NCCCOC(C)C)c(=O)c2cc(S(=O)(=O)N(C)C3CCCCC3)ccc21 -23.7%, Cc1ccc(C)c(N2CCN(S(=O)(=O)c3ccc4c(c3)n(C)c(=O)c(=O)n4C)CC2)c1 -9.41%, O=C(NCc1ccccc1)c1ccc(Cn2c(=O)c3cccn3c3cccnc32)cc1 0.626%, COc1cc(OC)c(NC(=O)CSCc2nc(-c3ccc(OC)c(OC)c3)no2)cc1Cl -0.16%, COCCCC/C(=N\OCCN)c1ccc(C(F)(F)F)cc1 -6.75%, O=C(Nc1cc(-c2nc3cc(Cl)ccc3o2)ccc1Cl)c1cc2ccccc2o1 7.77%, Cc1nn(-c2ccc(F)cc2)c(-n2cccc2)c1C(=O)N1CCN(c2ccccc2F)CC1 -12.6%, O=C(Nc1c(-c2ccc(F)cc2)nc2ccccn12)c1cccc(F)c1 -2.07%, Cc1c(C(=O)Nc2ccc(F)c(F)c2)oc2ccc(S(=O)(=O)N3CCC4(CC3)OCCO4)cc12 -11.3%, CC(=O)Nc1ccc(NS(=O)(=O)c2ccc(Cl)s2)cc1 -12.3%, COc1ccccc1CNC(=O)CN(c1ccc(C)cc1)S(=O)(=O)c1c(C)noc1C -17%, NC(=O)N1CCC(CC(=O)N2CCC([C@H]3c4ncc(Br)cc4CCc4cc(Cl)cc(Br)c43)CC2)CC1 -24.8%, Cc1ccc(C2C=C(c3ccc(F)cc3)Nc3nc(CCCO)nn32)cc1 (centres undefined) -14.1%, COc1ccc(OC)c(NC(=O)c2cnc(N3CCCC3)nc2C)c1 -5.5%, O=C(CN1C(=O)CCc2cc(S(=O)(=O)N3CCOCC3)ccc21)NCc1ccccc1Cl -2.53%, CCCOc1ccc(NC(=O)CC2C(=O)N(c3ccc(C)cc3)C(=O)N2C2CCCC2)cc1 (centres undefined) 17%, O=C(CSc1nc2c([nH]c3ccccc32)c(=O)n1-c1ccc(F)cc1)NCc1ccco1 -20.9%, CC1=C(C(=O)Nc2cc(Cl)ccc2C)C(c2ccco2)n2ncnc2N1 (centres undefined) -4.74%, CCSc1nnc2c(n1)OC(c1sccc1C)N(C(C)=O)c1ccccc1-2 (centres undefined) -30%, CCOC(=O)C1CCCN(S(=O)(=O)c2cc3c(cc2C)NC(=O)CO3)C1 (centres undefined) -26.4%, Cc1ccc(OCC(=O)Nc2ccc3nc(SCC(N)=O)sc3c2)cc1 0.184%, COc1ccc(Cn2c(=O)c3oc4ccccc4c3n(Cc3cccc(F)c3)c2=O)cc1 -15.9%, Cc1c(C)n(C)c2ccc(C(=O)NCCc3ccc(Cl)cc3)cc12 2.89%, Cc1ccc(-n2nc3ccc(NC(=O)Cc4ccc(Cl)cc4)cc3n2)cc1 -10.7%, CCOC(=O)c1c(NC(=O)C(C)Sc2cn(CCNC(=O)c3ccccc3OC)c3ccccc23)sc2c1CCC2 (centres undefined) -32.8%, COC(=O)c1sc2cccc(F)c2c1S(=O)(=O)NCc1ccc(Cl)cc1 0.746%, CCOC(=O)COc1ccc(CC)cc1C(=O)c1ccn2nc(-c3ccc(Cl)cc3)cc2n1 -5.59%, COc1cccc(CNC(=O)CSC2=Nc3ccccc3C3=NC(C)C(=O)N23)c1OC (centres undefined) -8.59%, CCOc1ccc(NC(=O)Cn2c(=O)n(CCCC(=O)NCc3ccc4c(c3)OCO4)c(=O)c3ccccc32)cc1 3.19%, Cc1ccc(CSc2ncc(Cl)c(C(=O)Oc3ccc(F)cc3)n2)cc1 27.8%, COc1ccccc1N1CCN(CCCNC(=O)c2cnn(-c3ccc(C)c(C)c3)c2C2CCN(C(=O)OC(C)(C)C)CC2)CC1 -23.2%, Fc1ccc(-c2cc(C(F)(F)F)nc(NCc3ccccc3)n2)cc1 -18.1%, COc1ccccc1CNC(=O)c1cnc2c(-c3ccccc3)c(C)nn2c1C -13.1%, CCc1nn(CC(=O)N2CCN(c3ccc(Cl)cc3)CC2)c(=O)c2cc3occc3n12 -8.39%, CCn1c(=O)n(-c2cccc(Cl)c2)c(=O)c2sc3ccccc3c21 -5.83%, O=C(Nc1ccc(Cl)cc1)c1cc2nc(-c3ccc4c(c3)OCO4)cc(C(F)(F)F)n2n1 -7.24% [at 11.5 µM], COc1ccc(C(=O)Nc2ccccc2-c2nc(-c3ccc(OC)cc3)no2)cc1 5.85%, O=C(CCC(=O)c1ccccc1)Nc1ccc(F)c(Cl)c1 -5.64%, COc1ccc(OC)c(/C=C(\C#N)c2nc3ccccc3c(=O)[nH]2)c1 -3.34%, O=S(=O)(NCCS(=O)(=O)N1CCN(c2ccccc2)CC1)c1ccc(Cl)cc1 -19%, Cc1sc2c(c1C)c(=O)n(CCc1ccccc1)c(=O)n2Cc1ccc(F)cc1 -14.9%, CCOC(=O)c1ccc2c(c1)[C@@H]1C=CC[C@@H]1[C@H](c1cccc(OC)c1OC)N2 -3.8%, CCCC(=O)C1=C(c2cccc(OC)c2)N(C(=O)CCC)n2c(C)nnc2S1 -28%, Cc1cc(C)c2sc(N(Cc3cccnc3)C(=O)CCOc3ccccc3)nc2c1 -28.6%, Cn1ccc2c(OCC(=O)Nc3ccc([N+](=O)[O-])cc3)cccc2c1=O -33.2%, CSc1ccc(CNC(=O)CN2C(=O)C3CCCCN3c3ccc(C(=O)N4CCCC4)cc32)cc1 (centres undefined) -9.98%, CCOC(=O)C1CCN(C(=O)c2ccc3c(c2)sc2nc(-c4ccc(C)cc4)cn23)CC1 12.6%, COC(=O)c1cc2sc(C)cc2n1CC(=O)Nc1cccc(SC)c1 -19.2%, Cc1cccc(OCC(=O)Nc2ccc3oc(-c4ccccc4F)nc3c2)c1 18.5%, COc1ccc(-c2nc3cc(C(C)C)ccc3o2)cc1NC(=O)c1ccc(C)c(Cl)c1 4.1%, O=S(=O)(NCc1nc2cccnc2n1Cc1ccc(F)cc1)c1ccc(Cl)s1 -16.6%, CCc1ccc(NC(=O)C2CCN(S(=O)(=O)c3c(C)noc3/C=C/c3ccco3)CC2)cc1 -24.1%, CCCCCC(=O)N(c1ccc(OCC)cc1)S(=O)(=O)c1ccc2c(c1)n(C)c(=O)n2C 11.9%

— PubChem BioAssay AID1508623 (National Center for Advancing Translational Sciences (NCATS), 2021)
